Hit rate of the full screen: of about 110,000 compounds, about 230 (0.21%) showed an effect of 50% or more. The list shows a part of the results.
molecular target: DPAP1 (Plasmodium falciparum, UniProt Q8IIJ9); test: primary screen, percent inhibition; read by cleavage of a fluorogenic dipeptide substrate; higher = more effect of the substance; parameters: species or system P. falciparum D10 trophozoite lysates; single well
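Also: 30 min substrate incubation versus DMSO and 10 µM JCP410 controls.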

DPAP1, sequence (Q8IIJ9 whole entry, looked up): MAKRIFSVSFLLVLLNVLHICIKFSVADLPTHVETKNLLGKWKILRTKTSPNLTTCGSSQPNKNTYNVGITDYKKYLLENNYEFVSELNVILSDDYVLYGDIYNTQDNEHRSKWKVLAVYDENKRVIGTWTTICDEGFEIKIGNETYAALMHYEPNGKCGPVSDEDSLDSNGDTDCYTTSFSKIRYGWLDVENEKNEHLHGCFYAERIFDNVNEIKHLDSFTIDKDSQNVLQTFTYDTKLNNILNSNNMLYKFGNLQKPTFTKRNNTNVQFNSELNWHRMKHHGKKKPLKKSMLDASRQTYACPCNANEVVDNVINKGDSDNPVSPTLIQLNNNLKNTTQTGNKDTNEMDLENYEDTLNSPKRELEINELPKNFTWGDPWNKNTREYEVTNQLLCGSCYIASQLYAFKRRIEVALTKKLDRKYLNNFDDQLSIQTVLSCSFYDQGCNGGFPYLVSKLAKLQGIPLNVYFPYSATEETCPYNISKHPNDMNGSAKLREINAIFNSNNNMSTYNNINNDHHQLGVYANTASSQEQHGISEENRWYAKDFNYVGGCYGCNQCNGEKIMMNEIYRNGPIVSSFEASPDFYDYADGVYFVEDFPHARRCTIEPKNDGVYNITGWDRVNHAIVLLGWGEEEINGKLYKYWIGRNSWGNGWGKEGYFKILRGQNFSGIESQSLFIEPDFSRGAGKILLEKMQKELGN

Compound | % Inhibition @ 10 uM
Cc1ccc(OCCCCN2CCOCC2)cc1 | -4.31%
C=CCNc1ncnc2c1c(-c1ccccc1)cn2-c1ccccc1 | -1.62%
CC(C)(C)NC(=O)N1CCC(C(=O)O)CC1 | 0.64%
COc1ccc(NC(=O)c2ccc(Br)o2)c(C)c1 | -2.97%
O=C(CCN1C(=O)c2ccccc2C1=O)Nc1ccccc1C(F)(F)F | 0.035%
Cc1ccc(N2C(=O)C3CC=CC(C)C3C2=O)cc1Cl (centres unmarked) | 4.41%
CC1=C(C#N)C(=O)N(C)C(=O)/C1=C\c1ccc(-c2cccc(C(=O)OC(C)C)c2)o1 | -4.93%
COc1cc(C2NC(C(=O)O)Cc3c2[nH]c2ccccc32)ccc1O (centres unmarked) | -2.18%
Fc1ccccc1C1C=C(c2ccc(Cl)cc2OC(F)F)Nc2ncnn21 (centres unmarked) | 0.219%
CN1C(=O)C2(C(C#N)=C(N)N(c3ccc(Cl)cc3)C3=C2C(=O)CC(C)(C)C3)c2ccccc21 (centres unmarked) | 2.38%
Cc1ccc2[nH]c(Cc3nc4cc(C)ccc4[nH]3)nc2c1 | 5.12%
Cc1cc(/C=C2\S/C(=N/c3ccc(C(=O)O)cc3)N(C)C2=O)c(C)n1-c1cccc(C(=O)O)c1 | 42.9%
Cc1cccc2c1-c1sc(C(=O)N3CCOCC3)cc1CO2 | -3.08%
Cc1ccccc1-c1nc2ccccc2o1 | 4.38%
CCOCCc1nnc(NC(=O)C(=O)c2cc(C)n(-c3ccccc3Cl)c2C)s1 | -2.84%
CCCCCn1c(CN2CCN(CC)CC2)nc2c1c(=O)[nH]c(=O)n2C | 33.2%
c1ccc(CN2CCC(N3CCc4ccccc4C3)CC2)cc1 | 3.48%
O=C(Cn1nnc(-c2ccccc2Cl)n1)NC1CCCC1 | 4.19%
CCOc1ccc2nc(N(CCN(CC)CC)C(=O)c3ccco3)sc2c1 | 6.08%
CCc1nn2c(=O)cc(COc3ccc(/C=C4/C(=N)N5C(C)=CSC5=NC4=O)cc3)nc2s1 | -5.76%
CC(C)C[C@H](NC(=O)c1ccccc1)C(=O)NC(C)CN(C)C (some centres unmarked) | 3.01%
O=C(Nc1nc(-c2ccccc2)ns1)c1ccccc1 | -3.37%
C/N=C1\S/C(=C\c2ccc(OCC(=O)O)c(Cl)c2)C(=O)N1C | 1.69%
O=C(Nc1cccnc1)c1cccc(Cl)c1 | -0.233%
c1ccc(-c2onc3ccc(-n4cccc4C4OCCO4)cc23)cc1 | 3.73%
Cc1ccc(S(=O)(=O)Cc2ccc(C(=O)NCCC(C)C)o2)cc1 | -1.28%

Compound | % Inhibition @ 10 uM
CCOC(=O)c1c(C)[nH]c(C)c1S(=O)(=O)NCC(=O)Nc1ccc(C)cn1 | 4.37%
O=C(NCCC1=CCCCC1)c1cc(S(=O)(=O)NCCc2ccccc2)ccc1F | -1.99%
COc1ccc(CN2CCN(c3c(-c4cc(C)c(C)cc4C)c(=O)c3=O)CC2)c(OC)c1OC | 1.74%
CCC1CCC(N(C)CC(O)c2ccccc2)CC1 (centres unmarked) | 3.15%
O=C(Nc1ccc(Nc2ccccc2)cc1)c1ccc(Br)o1 | -3.33%
NC(=O)C1CCCN(Cc2ccc(F)c(F)c2)C1 (centres unmarked) | -3.27%
Clc1ccccc1CN1CCC(N2CCCCC2)CC1 | 1.26%
O=C1c2cccnc2C(=O)N1Cc1ccc(F)cc1S(=O)(=O)NCc1ccccc1Cl | -2.19%
CC1=C(c2ccc(C)cc2)S(=O)(=O)N=C1N(C)Cc1ccccc1 | 2.27%
COc1ccc(C(=O)Nc2nc3c(C)cccc3s2)cc1 | -6.67%
Cc1csc(Sc2nc3c(c(=O)[nH]c(=O)n3C)n2Cc2ccccc2Cl)n1 | -8.39%
COc1ccc(CN2CCN(CCO)CC2)cc1Br | 3.47%
COc1ccc2cc(S(=O)(=O)c3ccc(C)c(C)c3)c(=O)oc2c1 | 5.32%
COc1ccc2nc(NC(=O)c3c(OC)cccc3OC)sc2c1 | 0.9%
O=C1c2cccnc2C(=O)N1CCc1ccc(S(=O)(=O)N2CCN(C3CCCCC3)CC2)cc1 | -2.13%
COc1ccc(CNCCC(c2ccccc2)c2ccco2)cc1OC (centres unmarked) | 3.59%
COc1ccccc1C(=O)N1CCN(c2nnc(-c3ccccc3)c3ccccc23)CC1 | -5.1%
Clc1cccc(N2CCN(Cc3c(Cl)cccc3Cl)CC2)c1 | 2.99%
COc1ccc(CCNC(=O)CCc2c(C)c3cc4c(C)coc4cc3oc2=O)cc1OC | 3.94%
CN1CCN(c2nc3c(c(=O)n(C)c(=O)n3C)n2Cc2ccccc2Cl)CC1 | 1.39%
CC1CCCC(NC(=O)Cn2cc3c(n2)CCCC3)C1C (centres unmarked) | 3.4%
CCCn1c(C(O)c2ccc(OC)c(OC)c2)nc2ccccc21 (centres unmarked) | 7.13%
COc1ccc(N2CN=C3SCC(=O)N3C2)cc1 | -0.274%
CS(=O)(=O)N(Cc1ccccc1)Cc1ccccc1 | 1.4%
COc1cccc2c1cc1c(=O)n(CC(=O)NCCC3=CCCCC3)nc(C)n12 | -3.47%
CN(CCN1CCOCC1)C1CCN(C(=O)CNC(=O)/C=C/c2cccc(C(F)(F)F)c2)CC1 | -4.71%

Compound | % Inhibition @ 10 uM
COc1ccc(S(=O)(=O)N(C)CC(=O)Nc2ccc(Cl)cc2C)cc1 | -0.171%
CCOc1ccc(C(=O)Nc2ccc(S(=O)(=O)N3CCC(C)CC3)cc2)cc1 | -4.69%
COc1ccccc1C(CC(=O)NC1CCOC(C)(C)C1)c1ccc(OC(C)C)cc1 (centres unmarked) | -5.08%
COCCNC(=O)c1nc(-c2ccc(Cl)cc2)n2c1CCCCC2 | 5.7%
CCOC(=O)c1c(NC(=O)/C=C/c2ccc(C(C)C)cc2)sc2c1CCCC2 | 6.08%
COc1cccc(NC(=O)Nc2cccc3ccccc23)c1 | -4.05%
COC(=O)c1ccc(-c2cc(C(=O)O)c3cc4c(cc3n2)OCCO4)cc1 | -2.24%
COc1ccc(/C=C2/NC(=O)N(Cc3ccccc3)C2=O)cc1Br | -0.312%
COCCN1CC23C=CC(O2)C(C(=O)O)C3C1=O (centres unmarked) | 2.39%
COCCNc1ncc(Br)nc1Br | -4.93%
CS(=O)(=O)N(CC(=O)Nc1ccc2c(c1)OCCO2)C1CCCCC1 | -2.32%
Cc1nc2ccc(NC(=O)Nc3ccc4ccccc4c3)cc2s1 | -1.98%
O=C(O)CN(CC(=O)O)c1ccccc1 | 2.31%
CN(Cc1ccccc1)C(=O)C(C(=O)c1ccc(F)cc1)n1cc(Cl)ccc1=O (centres unmarked) | -2.91%
COc1ccc(C(=O)NCc2ccccc2OC)cc1 | -1.48%
CCN1CCN(C(=O)CS(=O)(=O)Cc2nc(-c3ccc(C)cc3)oc2C)CC1 | -3.7%
COc1cc(C(C)(C)C)cc(Br)c1O | 0.878%
COc1ccc(NC(=O)C2=C(C)NC(=O)NC2c2cccs2)c(OC)c1 (centres unmarked) | -4.67%
Oc1cc(C(F)(F)F)nc2c(-c3ccc(Cl)cc3)cnn12 | -9.17%
CC(=O)Nc1ccc(N/C=C2/CCCCC2=O)cc1 | -2.77%
COc1ccc([C@H]2NCC[C@@]3(O)CCCC[C@H]23)c(OC)c1 | -11.5%
COc1ccc(CCNC(=O)COc2ccc3c(=O)c(-c4ccccc4)coc3c2)cc1OC | 3.27%
CSc1ccc(CN2CCN(C/C=C/c3ccccc3)CC2)cc1 | 0.501%
Clc1ccc(C2CC(c3ccc(-c4ccccc4)cc3)Nc3nnnn32)cc1 (centres unmarked) | -7.08%
N#C/C(=C\Nc1ccccc1)c1nc(-c2cc3cc(Br)ccc3oc2=O)cs1 | -5.26%
COc1ccc2c(c1)c1nc(SCc3cccnc3)n(CCO)c(=O)c1n2C | 4.95%

Compound | % Inhibition @ 10 uM
CC1Cc2nn(-c3ccccc3)c(-c3ccc(O)cc3)c2C(=O)C1C (centres unmarked) | -0.703%
CCc1ccc(OCC(O)CNC(C)C)cc1 (centres unmarked) | 4.08%
Cc1ccc(S(=O)(=O)Oc2ccc(-c3cnc4ccccc4n3)cc2)cc1 | 0.986%
COCCn1c(CN2CCOCC2)nc2c1c(=O)n(C)c(=O)n2C | -1.43%
N#C/C(=C(/O)c1ccc(Cl)cc1Cl)c1nc2ccccc2[nH]1 | -5.7%
CCOC(=O)c1sc2nc(-c3cccnc3)ccc2c1N | -2.2%
O=C1Nc2ccccc2C(O)(C(=O)N2CCOCC2)N1c1cccc(C(F)(F)F)c1 (centres unmarked) | -1.36%
COc1cc(OC)c(OC)cc1/C=C1\N=C(c2cccc(Cl)c2Cl)OC1=O | -11%
CC1CCCCN1C(=O)c1ccc(CNS(=O)(=O)c2cccc(C(F)(F)F)c2)cc1 (centres unmarked) | -1.57%
COc1cccc(OCc2ccc(C(=O)NCC3CCCO3)cc2)c1 (centres unmarked) | 2.92%
O=C(Nc1cccc(C(F)(F)F)c1)c1cccc(Br)c1 | 1.63%
COc1ccc(NC(=O)C(c2ccccc2)c2ccccc2)cc1 | -7.6%
O=C(Nc1ccc(Cl)cc1)Nc1ccc(F)c(F)c1 | -4.57%
CCOc1ccc2c(c1)nc(NCCO)n2CC | -5.48%
CN(C)CCn1c(SCc2ccccc2C#N)nc2c(sc3ccccc32)c1=O | 9.6%
CC1CCN(C(=O)c2ccc(Cl)c(Cl)c2)CC1 | 1.38%
CCc1ccccc1NS(=O)(=O)c1ccc(OC)cc1 | -3.44%
O=NN1CCN(c2ccncc2S(=O)(=O)N2CCCCC2)CC1 | -4.52%
CC(C(=O)N(C)Cc1ccccc1)n1ccc2cc(S(=O)(=O)N3CCCCCC3)ccc21 (centres unmarked) | -4.19%
CCOc1cc(/C=C(/C#N)c2nc(-c3ccc(OC)cc3)cs2)ccc1O | -3.26%
CCN(Cc1ccccc1)C(=O)Cn1c(SCc2ccc(C)cc2)nc2cccnc21 | -0.613%
Cc1cc(C)n(-c2nc(NC(C)(C)C)nc(N3CCOCC3)n2)n1 | 2.05%
O=C(Nc1ccncc1)c1ccc(CNS(=O)(=O)c2cccc(C(F)(F)F)c2)cc1 | 4.11%

Source: PMC6919601, “Identification of Plasmodium dipeptidyl aminopeptidase allosteric inhibitors by high throughput screening” (PLoS ONE, 2019)
